# The supplement of paper PMC10441789
# This is one part of the list. Antibody binding of pooled human sera (four to six donors per pool; dilution not stated) to peptides of the Trypanosoma cruzi antigen TSSA on microarrays. Quantile-normalised fluorescence in arbitrary units, mean of duplicate arrays; higher = more binding. No active / inactive call. The uninfected pools are read here as the healthy donors of the same country. The strongest signals lie near the top of the scale (about 60,000).
# Columns and labels:
# Test in all cases: antibody binding signal (normalised fluorescence) (arbitrary fluorescence units); higher = stronger serum antibody binding to peptide
# [1] = tested on: pooled sera of chronic Chagas disease patients, Argentina
# Procedure: (§1)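 Microarray of 15-residue peptides over residues 30-55 of Trypanosoma cruzi TSSAII, each with 1 to 10 substitutions at naturally variable positions, probed with one serum pool per country.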
# [2] = tested on: pooled sera of chronic Chagas disease patients, Bolivia
# Procedure: as §1
# [3] = tested on: pooled sera of chronic Chagas disease patients, Brazil
# Procedure: as §1
# [4] = tested on: pooled sera of chronic Chagas disease patients, Colombia
# Procedure: as §1
# [5] = tested on: pooled sera of chronic Chagas disease patients, Mexico
# Procedure: as §1
# [6] = tested on: pooled sera of chronic Chagas disease patients, USA
# Procedure: as §1
# [7] = tested on: pooled sera of uninfected people, Argentina
# Procedure: as §1
# [8] = tested on: pooled sera of uninfected people, Bolivia
# Procedure: as §1
# [9] = tested on: pooled sera of uninfected people, Brazil
# Procedure: as §1
# [10] = tested on: pooled sera of uninfected people, Mexico
# Procedure: as §1
# [11] = tested on: pooled sera of uninfected people, USA
# Procedure: as §1
Sequence,antibody binding signal [1],antibody binding signal [2],antibody binding signal [3],antibody binding signal [4],antibody binding signal [5],antibody binding signal [6],antibody binding signal [7],antibody binding signal [8],antibody binding signal [9],antibody binding signal [10],antibody binding signal [11]
STPPSGTDKKTATGE,32800,30300,31900,5880,40500,6340,556,145,461,1090,108
SGTENKPAAGGAPSQ,50100,19200,34400,1690,1710,8430,644,1830,333,356,158
KTATGGTPSPPGASS,478,286,524,411,436,566,356,129,176,101,148
KKAAAGETPSPPGAS,203,260,450,198,131,1050,263,316,93.3,135,325
DNKAAAGGTPSPSGA,481,311,457,3860,286,1190,211,393,2160,645,135
TDKKAATGGAPSQPG,1830,310,8840,1510,3260,1040,461,510,143,152,179
TENKTAAGEAPSPSG,20100,1140,2040,113,251,8000,201,122,229,141,149
TISTPPSGKDKKTAA,19200,334,1030,373,40100,502,335,209,123,87.4,175
GTDKKAATGETPSQS,2080,1410,16200,2560,439,10000,385,341,200,425,212
TPPSGKEKKAATGGT,5590,257,546,691,16700,1230,258,272,478,85.5,157
TDNKAAAGETPSPSG,259,267,6220,208,210,2060,124,321,153,298,2510
GTENKAAAGGAPSPS,36200,564,878,4260,798,1010,233,436,151,144,324
GTDKKAATGETPSQP,1820,1670,38100,2200,445,11500,417,296,308,312,201
TPPSGTEKKTATGGT,25900,1380,21300,471,7950,2250,784,296,1280,132,167
KKPATGGAPSPSGAS,450,664,809,812,340,860,359,861,95.1,120,291
PPSGKDKKAAAGEAP,1060,640,883,1060,38600,5080,208,430,104,74.4,106
GKENKTAAGGAPSPS,612,204,1940,3970,1550,6100,448,108,120,116,125
GKEKKPAAGETPSPP,4590,405,874,3390,3280,3260,128,125,92.1,78.8,381
GKENKAAAGGTPSPS,1040,294,3020,4660,2150,8080,278,76.4,455,113,98.2
TPPSGTENKAATGGT,42600,41000,45200,186,1370,15100,2240,555,1250,242,359
DKKTATGEAPSPPGA,9250,9510,11300,174,521,18500,155,98.2,149,290,145
PSGKEKKAAAGGAPS,8070,3240,6750,13100,12400,7610,333,212,108,103,197
TPPSGTENKTAAGEA,44200,34900,45100,185,2390,13100,1730,255,375,176,244
ENKAAAGGTPSPPGA,406,1210,341,3810,306,1120,178,177,1720,131,156
ENKTATGGAPSPPGA,481,1520,780,487,402,917,399,184,239,225,161
GKEKKPATGEAPSPS,42000,13000,36400,3050,5850,27500,735,275,149,102,253
EKKAAAGETPSQPGA,1000,750,31200,712,297,4700,177,1320,149,376,1100

Sequence,antibody binding signal [1],antibody binding signal [2],antibody binding signal [3],antibody binding signal [4],antibody binding signal [5],antibody binding signal [6],antibody binding signal [7],antibody binding signal [8],antibody binding signal [9],antibody binding signal [10],antibody binding signal [11]
SGKEKKPAAGEAPSQ,14200,4390,12400,5430,11900,14100,269,332,90.4,93.9,296
TEKKTATGGAPSPPG,2280,377,1160,5130,1180,2130,385,459,121,466,289
GTEKKPATGETPSPP,31300,21800,28900,2250,3970,22100,160,1040,814,1650,1090
GTENKPATGETPSPP,42300,32700,36200,1220,2720,27800,413,1070,342,1790,614
GTDKKTAAGGAPSQP,221,292,621,6430,587,538,172,156,144,112,113
ENKPATGETPSPSGA,36600,34100,35400,260,448,27700,316,427,265,1640,589
SGTDNKPAAGETPSQ,5730,1310,42500,2650,267,2810,107,670,284,350,194
KDNKTATGEAPSPPG,12900,11900,16600,2300,432,20100,505,191,200,88.7,152
TPPSGKENKAAAGET,10200,9930,2480,488,1920,3400,2760,1960,209,259,247
SGTENKAAAGGTPSP,41600,9000,13100,3430,838,3960,395,487,1040,181,131
SGKDNKTATGEAPSQ,12000,20400,21800,2040,381,21000,334,260,187,90.8,162
PSGTENKPATGGTPS,48800,34600,46900,1920,4410,12900,1800,2520,946,593,609
KDNKPATGGAPSQSG,445,1320,2620,259,226,1400,337,682,353,147,147
GKDNKTAAGEAPSPP,2550,686,2620,5030,3620,6710,288,241,138,130,173
KEKKPATGGTPSQSG,380,326,185,302,208,274,185,99.8,237,88.1,330
PPSGKEKKAAAGGAP,1960,325,1850,3430,4410,2970,310,191,132,97.1,153
PPSGTDKKPATGGAP,20000,2400,38000,4780,42700,2000,1090,1350,301,4550,535
STPPSGKENKPAAGE,41800,43100,24900,376,12300,14500,2370,1850,515,228,477
SGKEKKAATGGAPSP,3490,649,2460,2160,3950,4510,358,290,107,100,131
PPSGTEKKAATGETP,26400,9240,13100,557,1100,10200,1130,355,515,166,239
PPSGTENKAAAGGTP,54400,42600,50900,1250,8820,13200,2070,772,1110,289,796
SGTENKTAAGGAPSP,31000,4770,11100,7280,1110,3070,450,438,482,473,236
GKDNKTATGGTPSQP,1620,350,1060,5190,4500,3070,390,138,147,525,136
PSGKENKPAAGETPS,9600,6960,14100,10800,11000,10600,7610,5360,428,669,285
TDKKTAAGETPSQSG,423,617,1370,312,320,1570,101,248,374,199,132
KENKPAAGETPSQSG,260,585,21600,362,564,3650,191,398,179,286,124
KENKAAAGGAPSPPG,172,207,600,1320,169,667,225,104,113,80.1,132
